Laboratory results from ChEMBL document CHEMBL1697723, “A predictive ligand-based Bayesian model for human drug-induced liver injury” (Drug Metab Dispos, 2010).

Test system: Hepatotoxicity
Experiment: Human drug-induced liver injury (DILI) modelling dataset from Ekins et al

Structure (SMILES): Sc1ncnc2nc[nH]c12 [MERCAPTOPURINE ANHYDROUS]
- Hepatotoxicity: DILI positive (training set) [compound entry A] and DILI positive (test set) [compound entry B]

The source holds more than one record for some entries. This list holds those alone. The source may hold further records. The values listed for one entry are repeats (runs, samples, wells, individuals or studies). Marks in square brackets tell the records apart. Letters count within one entry.
